From PMC12136788
Some of the results follow.

T1: UNK ZnF1-3 (human, UniProt Q9C0B0 31-174)
T1 sequence: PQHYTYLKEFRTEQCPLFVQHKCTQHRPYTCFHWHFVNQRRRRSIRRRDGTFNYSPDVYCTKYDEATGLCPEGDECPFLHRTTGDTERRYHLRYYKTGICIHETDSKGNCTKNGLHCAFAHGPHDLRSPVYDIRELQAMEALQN

B1: chr7:31081878:31081879:+_ENSMUSG00000013921_ENSMUST00000014065|mus_hu|FALSE|FALSE (ssRNA)
RNA: GGGAGUUCUACAGUCCGACGAUCGAUGGUGGUCUGAGGGUCAAACAGGAUCUCCUGGCACGCCGGGUCAUUGGGAUCGAAGAAGGUGAAAGCGUAGUCCUUAGGGAGGGGGGCAGGUGCCGAGGGGUGCACAACAGGCUUCUGCAACAGAGGAUUGAGCAUCA
B2: chr3:108394432:108394433:+_ENSMUSG00000040389_ENSMUST00000051145|mus_hu|FALSE|FALSE (ssRNA)
RNA: GGGAGUUCUACAGUCCGACGAUCAGGAGAACGCGGCUGGGAGGCCGGCGGCCAGGGCCCCGAAGCGGCCGGCUCCGGGCUGCGGCAGGAGCACGACGGCGGCGGUCUGGGUUUGGCGUCGGUCCUCCCUCCUACCGCCCGCGCCAACAGAGGAUUGAGCAUCA
B3: chr13:31722580:31722581:-_ENSG00000120694_ENST00000320027|hu_mus|motif|central (ssRNA)
RNA: GGGAGUUCUACAGUCCGACGAUCCGAGUCGUGGUUCCAGACCAGAGAUAUUGGAAAAGGAACUGCAUCGGUGACAGAGAACUCUCGGACUUUAAAUGCCGGAGAAAGAAUUGCACACUGCAGUGCACAGCCUCUGGCCACAGCCAACAGAGGAUUGAGCAUCA
B4: chr5:122939345:122939346:-_ENSMUSG00000029467_ENSMUST00000031423|mus_hu|FALSE|FALSE (ssRNA)
RNA: GGGAGUUCUACAGUCCGACGAUCCUUUCUGUCCUGUCGAUACACUUUGCCCAUUUCAGGCUCAUAUUCCUUAAGGGCUUCGAUGGCAUUUUCAGCAUUUCUUUCCUGCCAUACACCCACAAUUGCAUUGGCUACUAAUAUGAGCAACAGAGGAUUGAGCAUCA
B5: chr7:36537692:36537693:-_ENSMUSG00000043671_ENSMUST00000051377|mus_mus|FALSE|FALSE (ssRNA)
RNA: GGGAGUUCUACAGUCCGACGAUCCAAUUUCUUUUCCAACUUCACAUCUUCUUUUGGUGAUGGAAAAUCCUCAGAAACUUCUAUGGGUUUUGUCUCUUUUCUUUGCCGGAUGUACAUCAUGAUGUCAAAGACUCAUACGCAUUGCAACAGAGGAUUGAGCAUCA
B6: chr1:107181519:107181520:-_ENSMUSG00000047496_ENSMUST00000058688|mus_mus|FALSE|FALSE (ssRNA)
RNA: GGGAGUUCUACAGUCCGACGAUCUCACCACUCUGGAUCCCUCUUCUCAAGCUCACAGGGCAUCGAGCAUUCACAAAUGUGCUAAUUUCUGAAUCUGUCACGCGUCCCUUUCACCCCCUUCUGCGUGUUGACAUCAAGUGGAAACAACAGAGGAUUGAGCAUCA
B7: chr7:126859785:126859786:-_ENSMUSG00000030942_ENSMUST00000033236|mus_mus|FALSE|FALSE (ssRNA)
RNA: GGGAGUUCUACAGUCCGACGAUCACCUGCAGUGAUGAGACAUCAGAUUUGCAAACAAAACAAACAAAAACCCAAGAAAAACUAACAGCAGAAAGCAUCACAAAGUGAUUCCCAUAUAAUCCACAAUGCAGCUUCUCUAUGUGUCAACAGAGGAUUGAGCAUCA
B8: chr2:32515631:32515632:+_ENSG00000119820_ENST00000437765|hu_hu|FALSE|FALSE (ssRNA)
RNA: GGGAGUUCUACAGUCCGACGAUCUUCAGGAUCAUCAUCUUCAACUUCCAGAAGCCAGCCAUAACCUCUUUGUCUCAGAAAUGUAGUAGCUGUAGAUUCUUUGAUAAAAUCUCCACCAAGAUUUAAUUUGACAUCUGGGGAUGCCAACAGAGGAUUGAGCAUCA
B9: 197128527_197128647_2700_CDS_ENSG00000177888_ENST00000367405|human|control|control (ssRNA)
RNA: GGGAGUUCUACAGUCCGACGAUCAGUAGUGCUAUCAAGGCCCAGUAAUGUUCCAAGAUAAGAUUGUUCUCUAGGAUCUAGCAUUUGUUCAGGUCGAACUGGGUGAACUAUAUUUGCAGGUUGAGGAGUAAGAGUAUAUUUUUCCAACAGAGGAUUGAGCAUCA
B10: chr12:16052864:16052865:+_ENSG00000023734_ENST00000419869|hu_mus|FALSE|FALSE (ssRNA)
RNA: GGGAGUUCUACAGUCCGACGAUCCCACAAUCUCAAUGUCCCAUCUUCAGAACCGCUGGCAUAGAGUUCCCCAUCAGGACUGAAUCUCACACAGUGAAUGGGACCAAAGUGACCUUUGUAGGAUUCUAACUCUUCUCCACUGUUCAACAGAGGAUUGAGCAUCA
B11: chrX:71549762:71549763:+_ENSMUSG00000019087_ENSMUST00000019231|mus_mus|mus_mus_mus_hu_False|68_68 (ssRNA)
RNA: GGGAGUUCUACAGUCCGACGAUCAAACCCGUGUACUUCUUAUUGUUAGCACAACAUCACCAGAAAAAAAACAUAACAGCCAAGCAGGACAGACAGUUAAGUAGUACUUCCACACUCCCAAACUCAGGGAGCCCUAUAACCUUACAACAGAGGAUUGAGCAUCA
B12: chr7:27827042:27827043:+_ENSG00000106052_ENST00000265393|hu_hu|FALSE|FALSE (ssRNA)
RNA: GGGAGUUCUACAGUCCGACGAUCUUUGUUCCCAUCUAAAUUUUUUAAAGUCUGGACCUCUGACAUAAGCUUGGUAUUUUCUAUUUCUGUAUUCUUCAAAUGUACCUUAUAAAGUUCCUUUUCAUCCUUCUCUGUCUUCAACUGCAACAGAGGAUUGAGCAUCA
B13: chr12:493273:493274:-_ENSG00000073614_ENST00000399788|hu_mus|hu_hu_hu_mus_False|88_88 (ssRNA)
RNA: GGGAGUUCUACAGUCCGACGAUCUUUUCUCUCCACCACAGGGAUCUUCAGAGUAGAUCCUUGAAGUUCCCAAAAUUUUGCCAGUUGAUCCAAGAAGUCCAAUCUUACUCUAGUCAUUGCCUCAAGUUCAUUCAGGCGCUGGACCAACAGAGGAUUGAGCAUCA
B14: chr2:135163197:135163198:+_ENSMUSG00000051177_ENSMUST00000110116|mus_hu|FALSE|FALSE (ssRNA)
RNA: GGGAGUUCUACAGUCCGACGAUCGAAGAGCUGAGGCAUAUAGUUGGAUGAAUCCACACGUGUUCCUUUUGGAUAUAUCCUGCUAAGCUGCAUUUUGUUAUAUUCUACAAAUUCCACUGGAGACUUGGUGAGUUGUUCAAGUCCCAACAGAGGAUUGAGCAUCA
B15: chr1:35650007:35650008:-_ENSG00000116560_ENST00000357214|hu_hu|FALSE|FALSE (ssRNA)
RNA: GGGAGUUCUACAGUCCGACGAUCAUCCAUAAAAAGAUAGCUUUCUUACUAAAAUGCAAGAAUUUAAAAGAUUGGUAUCUAAACAAAAAAACAAAACAAACUGGAAUGAAAGCCUAAAUAUCACAUCUAAAAUCGGGGUUUUUUCAACAGAGGAUUGAGCAUCA
B16: chr11:86503612:86503613:+_ENSMUSG00000072582_ENSMUST00000108022|mus_hu|FALSE|FALSE (ssRNA)
RNA: GGGAGUUCUACAGUCCGACGAUCCUGACAGGCUUCAAACACUUGUGAUGGAGGGGUUGUUGUCAUAUCAAAGUCCACCUAGUAAAGUUUUAGGUGACCAGUGACUUUGUCAAUUAGGUCUGCUGGUCCUGGCCCAAUCCCUAGCAACAGAGGAUUGAGCAUCA
B17: chr7:141450121:141450122:+_ENSG00000106028_ENST00000265304|hu_mus|hu_hu_hu_mus_True|1_88 (ssRNA)
RNA: GGGAGUUCUACAGUCCGACGAUCUCAUCCGUUCUAUGCCUUUUCUUUCGUCUGGUCACUCAGAAAUAUAAUGUUAUCAGCUAUGAUUGUUGUUGCUUGCCGCCUCACAUUGUUUUUAUCCAUGUACUCGCCAUAGUCUAUUUUCAACAGAGGAUUGAGCAUCA
B18: chr18:33744517:33744518:+_ENSG00000134759_ENST00000351393|hu_mus|FALSE|FALSE (ssRNA)
RNA: GGGAGUUCUACAGUCCGACGAUCUAAGAACUUGUCAUCAGGUGAGAAUGUCAUCUGUGUGACAGUCAGAGUGUGGAAAGCAAGACUCUGCACUUGUUUCCAAGAUGCCGUGCUCCAAAGAAUGAUAGCUGCGUGCUCCUUCUGCAACAGAGGAUUGAGCAUCA
B19: chr2:42510052:42510053:+_ENSG00000143924_ENST00000318522|hu_mus|FALSE|FALSE (ssRNA)
RNA: GGGAGUUCUACAGUCCGACGAUCACAGUCUGUAUGACCCAGGUAGUGUCGCUGAGUCCUCUCCUCAUAAUUAAACAGGACUACCACUGAGGCGAUAAAAUAAACUAUCUCCCCUGUGGGAAGCAGGUAUACAUUCGCUCUACACAACAGAGGAUUGAGCAUCA
B20: chr8:117878989:117878990:-_ENSG00000164754_ENST00000297338|hu_hu|hu_hu_hu_mus_True|1_48 (ssRNA)
RNA: GGGAGUUCUACAGUCCGACGAUCCCAGAGGCCCUCGUUUACUGAGGACAAAAUGUGCGUAGAACAUUUUUCUUAUUUGCUAUGAAAACAGAAGAAACCUGGAUCUCGGCGGGGAGCCGGGAGGGGUGGGUGGCCCGGGGGAGGCAACAGAGGAUUGAGCAUCA
B21: chr12:6601462:6601463:-_ENSG00000111639_ENST00000229238|hu_mus|FALSE|FALSE (ssRNA)
RNA: GGGAGUUCUACAGUCCGACGAUCCUCUCCUUGCUGGGAUAAGUCCUGUUCCCCUUCUCCAGGGUGACACAUUUCCCGUCCUAUCUGUACUUCCCAUGUCGGUUAAAGUGUUUGUAGAGAUAGCUGAUCCGUUUGUUAAGGUUACAACAGAGGAUUGAGCAUCA
B22: chr14:89307221:89307222:+_ENSG00000165533_ENST00000346301|hu_mus|hu_hu_hu_mus_False|18_18 (ssRNA)
RNA: GGGAGUUCUACAGUCCGACGAUCUCCUGUUUGGUUAGUGCCAGGGAGCUUCAAAGAUGUGCCAGGGCGUGGGACCUGAGCAAUAGCAUUUUCAUCCAGGAUCAUUUCAGCAAUUCCUUCCUGAUCUACAUCAAUUUCAUCUAUCAACAGAGGAUUGAGCAUCA

The binders below were run against T1, UNK ZnF1-3 (assay: nsRBNS (natural sequence RNA bind-n-seq); RBNS binding buffer (assumed for nsRBNS): 25 mM Tris pH 7.5, 150 mM KCl, 3 mM MgCl2, 0.01% Triton X-100, 500 ug/ml BSA, 20 U/ml SUPERase-In, 4 C; UNK is unkempt and MSI1 is Musashi-1; names of the RNAs are library labels; protein concentration not given here; high values mean tight binding).
B1 gave a binding signal of 1.79 enrichment R.
For B2, the binding signal was 0.654 enrichment R.
With B3 the binding signal was 0.858 enrichment R.
For B4, the binding signal was 0.626 enrichment R.
With B5 the binding signal was 0.49 enrichment R.
Work on B6 yielded a binding signal of 1.69 enrichment R.
With B7 the binding signal was 2.19 enrichment R.
In the case of B8, the binding signal is reported as 1.21 enrichment R.
B9 was tested, and the binding signal was 1.48 enrichment R.
B10 gave a binding signal of 0.851 enrichment R.
B11 gave a binding signal of 1.83 enrichment R.
In the case of B12, the binding signal is reported as 0.518 enrichment R.
Binder B13 has a binding signal of 1.01 enrichment R.
In the case of B14, the binding signal is reported as 0.929 enrichment R.
B15 showed a binding signal of 2.74 enrichment R.
B16 was tested, and the binding signal was 0.598 enrichment R.
With B17 the binding signal was 0.418 enrichment R.
B18 was tested, and the binding signal was 0.797 enrichment R.
B19 gave a binding signal of 1.17 enrichment R.
B20 was tested, and the binding signal was 1.69 enrichment R.
For B21, the binding signal was 0.639 enrichment R.
In the case of B22, the binding signal is reported as 0.826 enrichment R.
